Assay results reported in PubChem BioAssay AID1463 (National Center for Advancing Translational Sciences (NCATS), 2008).
Screen size: about 280,000 compounds; about 2,600 (0.93%) were called active. Another 8% or so got no clear call; they are omitted. Calls come from the whole dose curve; as a rule, active = well fitted curve in the direction sought with a large enough effect; inconclusive = small, poorly fitted or top-dose-only effect; inactive = flat fitted curve, though single readings scatter. The entries are a selection whose mix differs from that of the whole data set. More than one record can exist for a structure, and the calls need not agree.

Assay: Counterscreen qHTS for Inhibitors of Tau Fibril Formation, Fluorescence Polarization; note: nearly all actives have a fitted effect of over 55% in size
Settings: tau K18 P301L (four-repeat tau fragment) Alexa594 fluorescence, heparin fibrillization; series mostly up to 57.7 µM; activity change, negative = decrease: at the top concentration
Description: NIH Molecular Libraries Probe Production Network [MLPCN]
NIH Chemical Genomics Center [NCGC]
Assay Provider: Carlo Ballatore, University of Pennsylvania
The microtubule-associated protein tau is an abundant protein in the axons of neurons that stabilizes microtubules. With its ability to modulate microtubule dynamics, tau contributes directly or indirectly, to key structural and regulatory cellular functions. Particularly important is the influence tau exerts on axonal transport, which allows signaling molecules, trophic factors and other essential cellular constituents to travel along the axons. Under pathological conditions, tau becomes sequestered into insoluble aggregates called neurofibrillary tangles. This phenomenon is believed to have pathological consequences by promoting axonal transport deficits that ultimately lead to synaptic dysfunction and neuronal loss. To identify inhibitors of tau aggregation, a heparin-induced tau fibril formation assay was used that employed a recombinantly expressed fragment of tau, K18 (Q242-E372), bearing a P301L mutation (Gustke et al. 1994; Hong et al. 1998). […] Total fluorescence (555 nm excitation and 632 nm emission) was measured to identify fluorescent or absorbent compounds at this wavelength. Such compounds may be artifacts that interfere with the Alexa 594 Tau fluorescence polarization assay.
Gustke, N., B. Trinczek, et al. (1994). "Domains of tau protein and interactions with microtubules." Biochemistry 33(32): 9511-22.
Hong, M., V. Zhukareva, et al. (1998).
Li, W. and V. M. Lee (2006). "Characterization of two VQIXXK motifs for tau fibrillization in vitro." Biochemistry 45(51): 15692-701.
von Bergen, M., S. Barghorn, et al. (2001). "Mutations of tau protein in frontotemporal dementia promote aggregation of paired helical filaments by enhancing local beta-structure." J Biol Chem 276(51): 48165-74.
NCGC Assay Protocol Summary:
For screening, 2 uL/well human K18 P301L (15 uM unlabeled and 0.24 uM Alexa 594-labeled tau final concentrations) in reagent buffer (100 mM sodium acetate pH 7) was dispensed into black solid 1536-well plates (Grenier) using a solenoid-based dispenser. Following transfer of 23 nL compound or DMSO vehicle by a pin tool, 2 uL/well heparin (20 uM final concentration) in reagent buffer was added and the plate centrifuged 15 s at 1000 RPM. Plates were incubated 6 hr at 37 C and then 1 uL/well ThT (30 uM final concentration) was added. After a 1 hr ambient incubation, the plates were read by an Envision (Perkin Elmer) to monitor Alexa 594 FP (555 nm excitation and 632 nm emission).
Keywords: NIH Roadmap, MLPCN, MLI, MLSMR, NCGC, qHTS, tau, tauopathies, Alzheimer's disease, fibril, neurodegeneration, aggregation
% is set by controls: 0 for no effect and ±100 for the full control effect; potency is the fitted concentration of half-maximal effect; tags give direction and shape of the fitted curve or compound fluorescence and quenching.

SMILES	activity change, negative = decrease	Potency
C=C(C)CN1CC[C@@]23c4c5ccc(O)c4O[C@H]2c2[nH]c4ccccc4c2C[C@]3(O)[C@@H]1C5	inactive: -24.2%	–
C[C@H](CCC(=O)O)C[C@H](C)C[C@H](C)C(=O)/C=C(\O)[C@H](C)C[C@H](C)C/C=C/[C@@H](C)[C@@H](O)[C@@H](C)[C@@H](O)C[C@@H]1CC[C@@](C)(C2CC[C@@](C)([C@@H](C)O)O2)O1 (some centres undefined)	inactive: -16.3%	–
CCCN(CCC)C1CCc2ccc(O)cc2C1 (centres undefined)	inactive: -1.18%	–
COc1ccc2c3c([nH]c2c1)C(C)=NCC3	–	inactive
CN1CCN(C(=O)OC2c3nccnc3C(=O)N2c2ccc(Cl)cn2)CC1 (centres undefined)	–	inactive
OCCN1CCN(CCCN2c3ccccc3Sc3ccc(C(F)(F)F)cc32)CC1	inactive: -28.4%	–
O=C1NC(=O)N(c2ccccc2)C(=O)/C1=C/c1ccc([N+](=O)[O-])s1	inactive: -6.93%	–
COc1cc(CNC(=O)CCCC/C=C\C(C)C)ccc1O	–	inactive
CN1CC[C@@]23CCCC[C@@H]2[C@@H]1Cc1ccc(O)cc13	inactive: -1.51%	–
CNC(C)C(O)c1ccccc1 (centres undefined)	inactive: -6.41%	–
O=C1OC(c2cc(I)c(O)c(I)c2)(c2cc(I)c(O)c(I)c2)c2ccccc21	–	active: 7.08 µM [quencher]
CNC(C)[C@H](O)c1ccccc1 (some centres undefined)	inactive: -8.33%	–
NCCc1c[nH]c2ccc(O)cc12	–	inactive
c1cc2c(cc1[C@H]1OC[C@H]3[C@@H]1CO[C@@H]3c1ccc3c(c1)OCO3)OCO2	inactive: -8.41%	–
Oc1cc2c(cc1O)[C@H]1c3ccccc3CN[C@@H]1CC2	inactive: -29.9%	–
CCCN(CCC)[C@@H]1CCc2ccc(O)cc2C1	–	inactive
CC1=NCCc2c1[nH]c1cc(O)ccc21	inactive: -20%	–
O=C(O)CCNC(=O)c1ccccc1	inactive: -11.2%	–
C=C1C(=O)O[C@@H]2C[C@@H](C)[C@@H]3C=CC(=O)[C@@]3(C)[C@@H](O)[C@H]12	inactive: -9.45%	–
Cc1ccc(N=Nc2cc(C)ccc2N)cc1	–	active: 17.8 µM [quencher]
CN1CCN(C(=O)O[C@@H]2c3nccnc3C(=O)N2c2ccc(Cl)cn2)CC1	inactive: -4.57%	–
CC(=O)N1CCN(c2ccc(OC[C@H]3CO[C@](Cn4ccnc4)(c4ccc(Cl)cc4Cl)O3)cc2)CC1	–	inactive

SMILES	activity change, negative = decrease	Potency
NCCc1cc(O)c(O)cc1O	–	active: 10 µM [quencher]
CN1CC[C@@]23CCCCC2C1Cc1ccc(O)cc13 (some centres undefined)	inactive: -20.3%	–
C=C[C@H]1CN2CCC1C[C@@H]2C(O)c1ccnc2ccccc12 (some centres undefined)	inactive: 1.81%	–
Cc1c(C(=O)c2cccc3ccccc23)c2cccc3c2n1[C@H](CN1CCOCC1)CO3	–	inactive
N#CC(C#N)=Cc1cc(O)c(O)c(O)c1	inactive: 8.84%	–
CC[C@@H](CO)NC(=O)[C@@H]1C=C2c3cccc4c3c(cn4C)C[C@H]2N(C)C1	–	inactive
CNC(C)[C@@H](O)c1ccccc1 (some centres undefined)	inactive: -5.5%	–
CN1CCN(C(=O)O[C@H]2c3nccnc3C(=O)N2c2ccc(Cl)cn2)CC1	inactive: -0.566%	–
CNc1ccc2oc(C[C@H]3O[C@]4(CC[C@H]3C)O[C@H]([C@H](C)C(=O)c3ccc[nH]3)[C@H](C)C[C@H]4C)nc2c1C(=O)O	inactive: -18.1%	–
O=C(O)c1ccccc1Nc1cccc(C(F)(F)F)c1	–	inactive
O=c1c2ccccc2[se]n1-c1ccccc1	–	inactive
CS(=O)(=O)Nc1ccc(Cc2noc(-c3ccc4[nH]cc(CCN)c4c3)n2)cc1	inactive: -23.9%	–
NC(Cc1ccc(N(CCCl)CCCl)cc1)C(=O)O (centres undefined)	inactive: -20.4%	–
N#CC(C#N)=Cc1ccc([N+](=O)[O-])c(O)c1	–	inactive
C=CC1CN2CCC1CC2C(O)c1ccnc2ccccc12 (centres undefined)	inactive: -6.87%	–
COC1=C[C@]23CCCN2CCc2cc4c(cc2[C@@H]3[C@@H]1O)OCO4	inactive: -2.71%	–
CCC(CO)NC(=O)[C@@H]1C=C2c3cccc4[nH]cc(c34)C[C@H]2N(C)C1 (some centres undefined)	inactive: -11%	–
COc1cccc2c1cc([N+](=O)[O-])c1c(C(=O)O)cc3c(c12)OCO3	–	inactive
CN[C@H](C)[C@H](O)c1ccccc1	inactive: -6.27%	–
CC(N)C(O)c1ccc(O)c(O)c1 (centres undefined)	inactive: -11.1%	–
C[N+]1=C(/C=C/Nc2ccccc2)C(C)(C)c2ccccc21	inactive: -7.75%	–
COc1ccccc1N1CCNCC1	–	inactive
